# ± gives the standard deviation of the averaged measurements. Some of the results follow.
# Test system: PfAP2-LT AP2 domain (GST-tagged)
# Assay: gcPBM binding intensity (ln(normalized median fluorescence intensity)); higher = stronger DNA binding
# Method in brief: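 Probes on an Agilent 4 × 180k array were primer-extended, double-stranded and 36 bp long, taken from intergenic genomic regions, with negative controls added. GST-tagged P. falciparum DNA-binding domains from E. coli, about 25 μg on average, were applied to the array for 1 h in 1× PBS containing 1% milk, 0.2 mg/ml BSA, 0.5% salmon testes DNA and 0.03% Triton X-100. Binding intensity, obtained after Alexa488 anti-GST antibody detection and a 488 nm scan, is the highest Masliner-normalised natural-log median intensity across replicate spots of either probe orientation.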
row,Sequence,gcPBM binding intensity (ln)
1,CCCCTTAATTTATTTTGTACATATAATTTTTTTTTT [XGTACX_site3270],9.01 ± 0.27
2,ATTAATCAATATAGGCGTACAAAAAAAATAAATTAT [XGTACX_site1513],8.82 ± 0.47
3,AAAAAAAAAAAAAAAAAAAAAAATATATATATATTT [GTGCAC_negctrl_site502],8.7 ± 0.25
4,GTATTTTTAAATGACACACACATATATAAATATGTA [CACACA_site6880],9.01 ± 0.37
5,ACAAAAATAAGCAAATGTACATATGTATAATATATT [XGTACX_site2492],9.14 ± 0.39
6,TATAAACATAAATATACACACAAACATATAGGTATT [CACACA_site6690],9.17 ± 0.44
7,ATATTATAATTGAAGGTGCAAAATGTAATATAGATA [GTGCAC_site9661],8.94 ± 0.42
8,ATTATTATTTAAAAAAGTACATTGAAGTTCATAATA [XGTACX_site3575],8.39 ± 0.4
9,ATTCATTTTTTGGGGGGTACACCCTTTTAAACATTT [XGTACX_site4797],9.45 ± 0.12
10,GTATAAAAAAATATATGTACTTATTTACATATATAT [XGTACX_site4744],8.9 ± 0.47
11,TGAAATGATATATAAACACACATATATATATATATA [CACACA_site3511],9.62 ± 0.25
12,ATTTTTAATGTGATCACACATAAATATTATATATAT [CACACA_site5641],8.74 ± 0.39
13,GGACAAGTTTTTTACATAAATAAAAAAAATAAAAAA [XGTACX_negctrl_site125],8.6 ± 0.57
14,TTAAAGCTGACATATACACACATACATAAATTCATA [CACACA_site5377],9.08 ± 0.33
15,TATACATATATTATATGTACATATATATATAATATA [XGTACX_site2942],8.71 ± 0.36
16,ATACTTATGATAAATACACACTTGAAATTAAGGATT [CACACA_site4772],8.85 ± 0.37
17,CGAACAAACAAATAAACACACAAAAAAAAATATATA [CACACA_site1825],9.11 ± 0.5
18,AATGTGAAAAAAAAAAGTACAGACCTAATCAAAAAA [XGTACX_site2486],8.84 ± 0.57
19,TTTTTTAAAAGATATATAATATGTATGAATATTCAA [XGTACX_negctrl_site380],8.26 ± 0.41
20,AATATAAAAAAAGAGGAGGGATGGTATACTTGTGGT [CACACA_negctrl_site986],9.03 ± 0.4
21,ATAGAAGGCAACTTGGTGCACAAAAAAAAAAATAAT,9.13 ± 0.5
22,AAAAAAAATACATACACACACACACCCACATATATA [CACACA_site3561],10.13 ± 0.05

row,Sequence,gcPBM binding intensity (ln)
1,AAGAATAAAGAATGGTGTACATGCATATAAAATATT [XGTACX_site5707],9.1 ± 0.47
2,TTTTATTTCATTTGTTGTACTTTCAAAATATTATTA [XGTACX_site2192],8.59 ± 0.49
3,ATGTTATATATGTATTGTACGTATTTTGTATATTAT [XGTACX_site6607],9.26 ± 0.4
4,AGTGTTTTTTATAAAGTGCAATATAAAAACAAAATG,8.73 ± 0.45
5,AATTTTTTTTTATTGTGTACTTATTTTTTTATATTT [XGTACX_site917],8.95 ± 0.65
6,AATATATTTCATTTTTGTACACACAACGTTGGAGGG [XGTACX_site6461],9.35 ± 0.3
7,CAACATATGCATATGTGTACATATTTTATTTTCAAC [XGTACX_site2237],8.82 ± 0.42
8,ACATACATATGTAAATGTACAAAATATCCATAGATT [XGTACX_site2782],9.12 ± 0.4
9,ATATACTCATTAATAACACACAATATGATAACAAAT [CACACA_site5913],9.08 ± 0.35
10,TATATATTATCAAGTGGACACACGAAAAAAAGGAAA [CACACA_site3741],8.96 ± 0.52
11,TTTTTCATATTATACTTTTATATACATATATAAAAA [XGTACX_negctrl_site281],8.38 ± 0.55
12,TAAAGATTGTTCAGTGCATGTTGGCCTGTAAATGGA [TGCATGCA_site315],8.67 ± 0.45
13,ATAATGTAGAACTAGAGTACATAAAAAAATAAACAT [XGTACX_site5205],9.21 ± 0.61
14,TTTTTTTTTTTTTTTTTTTGTCTTATATATTACGGA [CACACA_negctrl_site322],8.34 ± 0.4
15,GCTACACAATTTTTTAGTACACACATATAAATATAT [XGTACX_site3131],9.04 ± 0.46
16,TAAGATATATTTTTTTGTACACATAATAAAATAATA [XGTACX_site8938],8.22 ± 0.28
17,GATAAATCATATATAACACACATATGAATATTACAA [CACACA_site1321],8.98 ± 0.35
18,AAAAGAAACTTATTTACGCACACTTTATTGCATGTT [CACACA_site3887],9.16 ± 0.3
19,GTAATTTTGAGATGATGTACATATTTTTTCCTTGTC [XGTACX_site4103],8.94 ± 0.43
20,ATATATATTTATGTATCACACACAAAAAAAAAAAAT [CACACA_site7973],9.19 ± 0.38
21,AGTTTATTTATATACACACACATATAAATATTATAG [CACACA_site6522],9.11 ± 0.42
22,TTCTTTAAAATATTATGTACACATTGCGAACAGTTT [XGTACX_site5418],8.85 ± 0.47

row,Sequence,gcPBM binding intensity (ln)
1,TATATATATATATATTGTACTTATGTTTATATTCAT [XGTACX_site6258],9.37 ± 0.45
2,TATGCAAGGAACCACACACACACACCGAAATGTATA [CACACA_site4573],10 ± 0.27
3,TTTTTTATTAGTATCTGTACACATTGGTATTTGTAT [XGTACX_site6682],8.99 ± 0.53
4,AATAAATAAATATATATATATATATAATATCATAAA [CACACA_negctrl_site337],8.89 ± 0.41
5,TTCTTAAAATATGAAAGTACATAGGCATTATATATT [XGTACX_site8400],8.46 ± 0.49
6,ATATAGACACACACATGTACATATGCCAACGTGATA [XGTACX_site3828],9.26 ± 0.37
7,ATAAACTGAGTGGTTACACACAAAACCAATAACTTT [CACACA_site7601],9.22 ± 0.42
8,ACTATATAATATAATATATTATAATATATTATATTA [GTGCAC_negctrl_site140],8.47 ± 0.38
9,AATAATATTTATTTTTGTACATATGTGCATTATAAA [XGTACX_site3682],8.69 ± 0.47
10,TTATAATAAACCTATACACACATAAATAAATAAATA [CACACA_site2581],8.91 ± 0.42
11,TATGTATATATTTGTGCACACCAAAGTTTGATTTTA [CACACA_site1861],9.18 ± 0.53
12,ATGATCATAAAACACACACACAAAAAAAAAAAAAAA [CACACA_site1805],9.26 ± 0.44
13,ATTAATTTTATATATGCACACAAAATATGTTCATAT [CACACA_site9350],9.13 ± 0.35
14,GAATTCAACAAAAAAAGTACTCTACATAAAATAATG [XGTACX_site175],8.66 ± 0.34
15,CCATGCATACATTCTTGTACACATTTCTATTATGAG [XGTACX_site39],8.99 ± 0.33
16,ATATTGATGTATTGTTTTTTTTTTTTCTTTTTTTTT [CACACA_negctrl_site1238],8.67 ± 0.51
17,TACTCACAATGGGGTCTACAAAAAAAAAAAAATAAA [XGTACX_negctrl_site229],8.38 ± 0.61
18,TTATAAAAGGACTTCTGTACGAATTTTTTTTAATAA [XGTACX_site1411],8.16 ± 0.4
19,GAACGAAACTTTCTTACACACATTGAAATTTTTTTC [CACACA_site1779],9.09 ± 0.47
20,TCAAGAATTATATAAACACACATACATACACCCATA [CACACA_site5126],9.38 ± 0.2
21,AAAAATATAAAGAAATGTACTTATAAAAATCCCTAC [XGTACX_site3824],8.73 ± 0.34
22,TTCTGTTCAAAATATGAACACACACCGATATATATA [CACACA_site8637],9.1 ± 0.44

row,Sequence,gcPBM binding intensity (ln)
1,TACACCAGTTGTGGGAGTACACAAAAAAAGGGAAAA [XGTACX_site6047],9.1 ± 0.64
2,CTTTATCTTTTTCATTGTACTTTATTTTAAAATTAA [XGTACX_site4858],8.64 ± 0.5
3,AATATCATAAAATAAAGTACAAATATATATTGAAAA [XGTACX_site8813],8.94 ± 0.43
4,TGCAGTCTGGAGAAAAGTACACAGTATCTGGTAGCT [XGTACX_site2013],8.79 ± 0.56
5,AATAGATTTTTATGCGTGCACACATTTAACAAAAAA,8.87 ± 0.42
6,GTGCTAGTATTTAATACACACAATTGAAGTTCCTGA [CACACA_site1452],8.82 ± 0.35
7,TAACATCCTAATGTCACACATGTTATAGGTTTAAAT [CACACA_site5649],8.64 ± 0.4
8,TTCTGGTGTAAATGCACACAGAAGAAGAAAAAAAAA [CACACA_site3685],8.87 ± 0.47
9,TAATTTAATTTTCCAAGAAAAAAAAAAGAAAAAAGA [CACACA_negctrl_site1703],8.32 ± 0.45
10,TTTGAAATATTTATTTGTACATATACACACTTAAAT [XGTACX_site8321],8.84 ± 0.45
11,ATATTATTTTGTCAGGGTACATTCCATAAGTTTTTT [XGTACX_site6855],8.78 ± 0.54
12,AAAAAAAAAAAAAAAAAAACCACAAACAAATATGAA [TGCATGCA_negctrl_site34],8.72 ± 0.47
13,CCTTCATCATATTTAACACACAGAGAAAAAGCGGAT [CACACA_site274],9 ± 0.37
14,TCCTTTCTTTTTTAAACATGCATATGTAATATAAAT [TGCATGCA_site979],8.47 ± 0.44
15,TTTACATACAAATTAACACACATATAGAAAAGAGAA [CACACA_site1889],8.96 ± 0.5
16,CTCGTATATATAATACGTACATATTATATATATATA [XGTACX_site1704],8.85 ± 0.2
17,AAAAAAAATAAACACACACACATACCCATAAATATA [CACACA_site5980],10 ± 0.13
18,ATAATATAATAATACACACTCATTATATATATAAAG [CACACA_site3956],8.82 ± 0.43
19,TTTTAAAATATATTTGTATATATATATATATATATA [XGTACX_negctrl_site536],9.125 ± 0.021
20,GCTTGTTCAAAAATGAGTACATACAAATAGTTGTAT [XGTACX_site1770],8.74 ± 0.38
21,TATTTATGTAGATACACACCCATGTTATATGGAGGT [CACACA_site3461],8.84 ± 0.41
22,TTTCTTTTTTTTTTTATTTACCTGAATTATGTATTA [TGCATGCA_negctrl_site345],8.66 ± 0.61
